Measurements as given in the supplement of paper PMC4604168 (melanoma cell lines).
This is one part of the list. Many values rest on one well or one pass, so single values are uncertain.

Legend:
Test in all cases: cell count relative to DMSO control; melanoma cells; higher = more viable cells
Conditions in all cases: library dose: low library concentration; 72 h
MZ2-MEL = system: MZ2-MEL
MeWo = system: MeWo
RPMI7951 = system: RPMI7951
RVH-421 = system: RVH-421
SkMel28 = system: SkMel28
SkMel2 = system: SkMel2
SkMel30 = system: SkMel30
UACC62 = system: UACC62
WM115 = system: WM115
WM1716 = system: WM1716
WM1745 = system: WM1745
WM3526 = system: WM3526
WM3619 = system: WM3619
WM451Lu = system: WM451Lu
SkMel5 = system: SkMel5
UACC257 = system: UACC257
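Also: cell number obtained by counting DAPI-stained nuclei in high-throughput microscope images with image analysis software, screen run in 1,536-well plates.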

| Structure (SMILES) | cell count (MZ2-MEL) [%] | cell count (MeWo) [%] | cell count (RPMI7951) [%] | cell count (RVH-421) [%] | cell count (SkMel28) [%] | cell count (SkMel2) [%] | cell count (SkMel30) [%] | cell count (UACC62) [%] | cell count (WM115) [%] | cell count (WM1716) [%] | cell count (WM1745) [%] | cell count (WM3526) [%] | cell count (WM3619) [%] | cell count (WM451Lu) [%] | cell count (SkMel5) [%] | cell count (UACC257) [%] |
| --- | --- | --- | --- | --- | --- | --- | --- | --- | --- | --- | --- | --- | --- | --- | --- | --- |
| Cn1cnc2c(F)c(Nc3ccc(Br)cc3Cl)c(C(=O)NOCCO)cc21 [selumetinib] + C[As](C)SC[C@H](NC(=O)CC[C@H](N)C(=O)O)C(=O)NCC(=O)O [Darinaparsin] (first compound 0.015 µM, partner dose 0.4 µM) | 97.8 | 108 | 134 | 91.8 | 104 | 89.1 | 63.9 | 90.4 | 106 | 117 | 99 | 85.7 | 86.2 | 96.1 | – | – |
| N#CC[C@H](C1CCCC1)n1cc(-c2ncnc3[nH]ccc23)cn1 [ruxolitinib] + Cn1cc(C2=C(c3cn(C4CCN(Cc5ccccn5)CC4)c4ccccc34)C(=O)NC2=O)c2ccccc21 [Enzastaurin] (first compound 1 µM, partner dose 0.8 µM) | 100 | 102 | 101 | 81.9 | 108 | 107 | 123 | 121 | 106 | 114 | 90 | 136 | 112 | 102 | – | – |
| CCN(CC)CCNC(=O)c1c(C)[nH]c(/C=C2\C(=O)Nc3ccc(F)cc32)c1C [sunitinib] + Cc1cc(SCc2sc(-c3ccc(C(F)(F)F)c(F)c3)nc2C)ccc1OCC(=O)O [GW0742] (first compound 0.4 µM, partner dose 2 µM) | 109 | 78.3 | 116 | 134 | 86.5 | 117 | 62.7 | 109 | 108 | 148 | 94 | 80.1 | 126 | 94.8 | 117 | 87.5 |
| COc1cc([C@@H]2c3cc4c(cc3[C@@H](O[C@@H]3O[C@@H]5CO[C@@H](C)O[C@H]5[C@H](O)[C@H]3O)[C@H]3COC(=O)[C@H]23)OCO4)cc(OC)c1O [etoposide] + C/C(O)=C(\C#N)C(=O)Nc1cc(Br)ccc1Br [LFM-A13] (first compound 0.02 µM, partner dose 2 µM) | 95.4 | 102 | 86.9 | 105 | 95.4 | 95.8 | 112 | 69.9 | 99.3 | 96.2 | 105 | 96.8 | 75.8 | 97.1 | 107 | 99.2 |
| N#CC[C@H](C1CCCC1)n1cc(-c2ncnc3[nH]ccc23)cn1 [ruxolitinib] + N.N.[Cl][Pt][Cl] [cisplatin] (first compound 1 µM, partner dose 1.6 µM) | 96.9 | 84 | 84.6 | 85.8 | 102 | 100 | 89.3 | 98.1 | 107 | 87 | 88.4 | 90.6 | 102 | 93 | – | – |
| Cn1sc(=O)n(Cc2ccccc2)c1=O + C/C(O)=C(\C#N)C(=O)Nc1cc(Br)ccc1Br [LFM-A13] (first compound 0.4 µM, partner dose 2 µM) | 92.3 | 96.7 | 94.6 | 122 | 95.2 | 102 | 95.1 | 101 | 93.5 | 116 | 113 | 98.9 | 118 | 108 | 92.1 | 81.3 |
| CCCS(=O)(=O)Nc1ccc(F)c(C(=O)c2c[nH]c3ncc(Cl)cc23)c1F + C[As](C)SC[C@H](NC(=O)CC[C@H](N)C(=O)O)C(=O)NCC(=O)O [Darinaparsin] (first compound 0.08 µM, partner dose 0.4 µM) | 89.4 | 96.3 | 128 | 89.3 | 74.2 | 91.4 | 86.3 | 68 | 96.6 | 109 | 106 | 79.6 | 90.9 | 111 | – | – |
| CCCS(=O)(=O)Nc1ccc(F)c(C(=O)c2c[nH]c3ncc(Cl)cc23)c1F + Cc1cc(SCc2sc(-c3ccc(C(F)(F)F)c(F)c3)nc2C)ccc1OCC(=O)O [GW0742] (first compound 0.08 µM, partner dose 2 µM) | 83.2 | 104 | 93.2 | 80.1 | 75.5 | 93.9 | 96 | 51.9 | 102 | 121 | 80.7 | 71.8 | 105 | 104 | 114 | 94.8 |
| CCCCCCCCCCCCCCCCCCOP(=O)([O-])OC1CC[N+](C)(C)CC1 [Perifosine] + C/C(O)=C(\C#N)C(=O)Nc1cc(Br)ccc1Br [LFM-A13] (first compound 0.4 µM, partner dose 2 µM) | 96 | 115 | 58.6 | 85.7 | 79.7 | 96.1 | 59.6 | 84.5 | 103 | 106 | 94.5 | 79.9 | 112 | 89.1 | 85.8 | 108 |
| Cc1cn(-c2cc(NC(=O)c3ccc(C)c(Nc4nccc(-c5cccnc5)n4)c3)cc(C(F)(F)F)c2)cn1 [nilotinib] + O=C(Oc1ccc([N+](=O)[O-])cc1)N1CCC(C(O)(c2ccc3c(c2)OCO3)c2ccc3c(c2)OCO3)CC1 [JZL184] (first compound 0.2 µM, partner dose 1 µM) | 92.5 | 97.3 | 98.9 | 117 | 99.2 | 96.9 | 88.5 | 104 | 109 | 84.9 | 95.2 | 82.1 | 99.3 | 122 | 90.4 | 96 |
| CC(=O)O[C@@]12CO[C@@H]1C[C@H](O)[C@@]1(C)C(=O)[C@H](O)C3=C(C)[C@@H](OC(=O)[C@H](O)[C@@H](NC(=O)OC(C)(C)C)c4ccccc4)C[C@@](O)([C@@H](OC(=O)c4ccccc4)[C@H]21)C3(C)C [Docetaxel] + C/C(O)=C(\C#N)C(=O)Nc1cc(Br)ccc1Br [LFM-A13] (first compound 0.0001 µM, partner dose 2 µM) | 52.8 | 38.3 | 37.8 | 64.2 | 34.3 | 41 | 41.8 | 32.8 | 58.6 | 36.8 | 45 | 51.8 | 66.1 | 48.1 | 73.8 | 31.8 |
| CCCCCCCCc1ccc(CCC(N)(CO)CO)cc1 [fingolimod] + Cc1cc(SCc2sc(-c3ccc(C(F)(F)F)c(F)c3)nc2C)ccc1OCC(=O)O [GW0742] (first compound 2 µM, partner dose 2 µM) | 69.2 | 105 | 95.3 | 13.7 | 106 | 98.8 | 81.2 | 80.1 | 90.8 | 79.7 | 70.3 | 103 | 75.9 | 81.5 | 113 | 93.3 |
| NC1(c2ccc(-c3nc4ccn5c(=O)[nH]nc5c4cc3-c3ccccc3)cc2)CCC1 + O=C(Oc1ccc([N+](=O)[O-])cc1)N1CCC(C(O)(c2ccc3c(c2)OCO3)c2ccc3c(c2)OCO3)CC1 [JZL184] (first compound 0.4 µM, partner dose 1 µM) | 95.2 | 94.6 | 92.3 | 90.2 | 74 | 79.6 | 91.5 | 84.3 | 81.3 | 83.4 | 98.1 | 81 | 89.5 | 84.7 | 97.4 | 91.8 |
| O=C(/C=C/c1cccnc1)NCCCCC1CCN(C(=O)c2ccccc2)CC1 + C/C(O)=C(\C#N)C(=O)Nc1cc(Br)ccc1Br [LFM-A13] (first compound 0.01 µM, partner dose 2 µM) | 44.4 | 111 | 107 | 65 | 99.9 | 44.3 | 91.1 | 92.2 | 95.1 | 102 | 110 | 110 | 65.6 | 105 | 91.8 | 96.1 |
| COc1cc([C@@H]2c3cc4c(cc3[C@@H](O[C@@H]3O[C@@H]5CO[C@@H](C)O[C@H]5[C@H](O)[C@H]3O)[C@H]3COC(=O)[C@H]23)OCO4)cc(OC)c1O [etoposide] + Cc1cc(SCc2sc(-c3ccc(C(F)(F)F)c(F)c3)nc2C)ccc1OCC(=O)O [GW0742] (first compound 0.02 µM, partner dose 2 µM) | 95.6 | 87 | 114 | 83.9 | 94.1 | 84.6 | 84.5 | 89.2 | 101 | 96.4 | 91 | 111 | 86.5 | 119 | 108 | 87.6 |
| CCCCCCCCc1ccc(CCC(N)(CO)CO)cc1 [fingolimod] + N.N.[Cl][Pt][Cl] [cisplatin] (first compound 2 µM, partner dose 1.6 µM) | 97.7 | 84.8 | 85 | 82.6 | 87.8 | 96.4 | 85.8 | 87.9 | 91.9 | 80.8 | 75.6 | 78.5 | 73.8 | 89.3 | – | – |
| Cc1cn(-c2cc(NC(=O)c3ccc(C)c(Nc4nccc(-c5cccnc5)n4)c3)cc(C(F)(F)F)c2)cn1 [nilotinib] + Cc1cc(SCc2sc(-c3ccc(C(F)(F)F)c(F)c3)nc2C)ccc1OCC(=O)O [GW0742] (first compound 0.2 µM, partner dose 2 µM) | 93 | 88.1 | 86.2 | 93 | 95 | 88 | 87.8 | 103 | 105 | 82.3 | 78.7 | 101 | 91.2 | 110 | 108 | 89.3 |
